Reference: the supplement of paper PMC3334620
Whole data set: some 33,000 sequences, median “E-score (-0.5 to 0.5)” near -0.054, cut for the highest 2% near 0.35. This is one part of the list.

These sequences were tested against T1, Stb5 (UniProt P38699) (assay: PBM E-score (8-mer binding enrichment) (E-score (-0.5 to 0.5)); higher = stronger / more preferred TF binding; most listed sequences are background and not binding sites). Conditions: protein concentration: 200 nM; construct: GST-full length.
T1 sequence: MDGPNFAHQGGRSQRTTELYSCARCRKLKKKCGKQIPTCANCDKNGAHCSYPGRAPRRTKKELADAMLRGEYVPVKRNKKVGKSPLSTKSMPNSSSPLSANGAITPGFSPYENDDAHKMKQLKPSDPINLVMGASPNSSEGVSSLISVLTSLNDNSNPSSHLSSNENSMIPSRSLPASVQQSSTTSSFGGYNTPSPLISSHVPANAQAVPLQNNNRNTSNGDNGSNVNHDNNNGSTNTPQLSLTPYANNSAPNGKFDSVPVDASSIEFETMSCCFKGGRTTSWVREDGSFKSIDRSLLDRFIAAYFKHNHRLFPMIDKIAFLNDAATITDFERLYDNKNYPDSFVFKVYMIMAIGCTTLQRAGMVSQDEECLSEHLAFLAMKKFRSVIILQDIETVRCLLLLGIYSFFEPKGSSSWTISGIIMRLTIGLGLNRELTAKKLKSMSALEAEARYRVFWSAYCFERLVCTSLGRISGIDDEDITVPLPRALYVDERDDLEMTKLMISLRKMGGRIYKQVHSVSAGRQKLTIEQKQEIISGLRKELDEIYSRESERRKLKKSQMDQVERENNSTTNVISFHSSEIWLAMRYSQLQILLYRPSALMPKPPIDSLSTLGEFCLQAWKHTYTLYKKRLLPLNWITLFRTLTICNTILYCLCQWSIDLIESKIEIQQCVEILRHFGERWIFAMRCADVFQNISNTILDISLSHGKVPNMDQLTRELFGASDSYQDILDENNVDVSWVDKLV
Method: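 Universal 'all 10-mer' protein binding microarrays (Agilent AMADID 015681) probed with GST-tagged S. cerevisiae TFs (full-length or DBD) made by in vitro transcription/translation (PURExpress), about 100-200 nM. Bound TF was detected with fluorescent anti-GST. Each ungapped 8-mer (which stands for itself and its reverse complement) is scored by the PBM enrichment score (E-score), a modified Wilcoxon-Mann-Whitney statistic from -0.5 to +0.5, computed with the Universal PBM Analysis Suite. Scale: above 0.35 generally sequence-specific binding.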

| Sequence | PBM E-score |
| --- | --- |
| ACTCCCCA | -0.225 |
| CGTAATCA | -0.128 |
| AGTGTCTA | -0.106 |
| CCGCCCCA | 0.287 |
| ATGGGTAA | -0.112 |
| GTGGCAAC | 0.0155 |
| CTTACTCC | 0.124 |
| CTATAGTC | -0.155 |
| CAACACCG | 0.408 |
| AAGAGTAA | -0.174 |
| ACTTACAA | -0.151 |
| AACCGTAT | 0.0334 |
| ATTCCTCG | -0.0859 |
| AGATGGTC | 0.0239 |
| CAGAGTCA | -0.244 |
| TATTCCCA | 0.153 |
| CGGATCCG | 0.124 |
| GGCCCTAA | 0.207 |
| TATAGGGA | -0.05 |
| GCGGGTCA | 0.0299 |
| AGCCGTTA | 0.0306 |
| CGGGCAGC | -0.0267 |
| CACCCGCG | 0.18 |
| CTAGTCAG | -0.258 |
| GCCGCGGA | 0.299 |

| Sequence | PBM E-score |
| --- | --- |
| GAGACTAA | 0.0679 |
| GTACTGAC | -0.00036 |
| ACATACCT | 0.0844 |
| GCGATTCC | 0.0798 |
| CTTACAAG | -0.134 |
| AAATTTGA | -0.103 |
| CCCCGTTA | 0.293 |
| CAGCCCAG | -0.278 |
| AGGAGGTC | -0.161 |
| AACGCTCT | -0.133 |
| AACTACGG | 0.198 |
| CGATCTTC | 0.112 |
| ACTGCATC | -0.299 |
| CGGTTAAA | 0.259 |
| GAGGTTGA | -0.14 |
| CCTAGCGA | -0.379 |
| ATTATAAA | 0.117 |
| AAGCCCCG | 0.431 |
| AATTTGAC | 0.0338 |
| GACTCAGA | -0.0449 |
| CAGACCAC | -0.0981 |
| TACCGAGA | 0.102 |
| TTGAGCAA | -0.289 |
| GCAGAGAC | -0.0689 |
| GAGTACGC | -0.253 |

| Sequence | PBM E-score |
| --- | --- |
| GCAGGGTA | -0.216 |
| TGGACACA | -0.0717 |
| ATGAGGTG | -0.266 |
| AATCCCTG | -0.149 |
| ACTGGAAC | -0.0631 |
| TTTATAAA | 0.286 |
| ATCGCTCG | -0.109 |
| ACTACACT | -0.255 |
| ACGATAAC | 0.0877 |
| AAGCCAGT | -0.307 |
| AGTCGATG | -0.234 |
| AAGACGAG | -0.166 |
| ATGTCACG | -0.0387 |
| CGATGATC | -0.0354 |
| ACTCGCGG | 0.203 |
| AGGGAGGC | -0.159 |
| GAGGCAAA | -0.184 |
| GACGGTGC | 0.392 |
| AGCGTTGA | -0.0135 |
| GTGGCCAC | -0.00927 |
| ATTCAGGA | -0.135 |
| ATAGAGGC | -0.189 |
| CCATATGA | -0.131 |
| GCATGGTA | -0.0259 |
| AAAGAACT | -0.11 |

| Sequence | PBM E-score |
| --- | --- |
| CTTCACGA | -0.173 |
| AGTATCGC | 0.0902 |
| GTATCGAA | 0.0312 |
| CTTTTCGA | -0.19 |
| CGAACAAA | 0.0211 |
| TATTCGCA | -0.161 |
| CCCACCGC | 0.221 |
| GACCTCAA | -0.123 |
| CAGCGAAG | -0.108 |
| ATCTCCTG | 0.0471 |
| GCGGCGCC | 0.326 |
| CAACCGAG | -0.0958 |
| GCACGCCA | -0.243 |
| ATTGTTCG | 0.0214 |
| GCTCGAAA | 0.0656 |
| TCTCTAAA | -0.0864 |
| AACCTTGG | -0.0674 |
| CGCATTAA | 0.0361 |
| CCTCCTGC | -0.304 |
| CTGGACAA | -0.236 |
| CAACCCAG | -0.146 |
| ACCACCGA | 0.357 |
| CGACAAAA | 0.0666 |
| GGTTTTGA | 0.074 |
| GGTTCAGA | -0.246 |

| Sequence | PBM E-score |
| --- | --- |
| AGTGCGAT | 0.0295 |
| TCTGCCCA | -0.163 |
| TCCAGAGA | -0.208 |
| CCGATACC | 0.213 |
| TCAATAAA | -0.0262 |
| CTTTTGGA | -0.0799 |
| AGAGGACC | -0.182 |
| CCCTCACA | -0.253 |
| ACCATCTC | -0.0516 |
| AGGAGGAC | -0.264 |
| CCGCTCTA | 0.284 |
| CTGGGGGA | -0.233 |
| CAATGGGG | -0.0137 |
| CGAACACC | 0.14 |
| CATAGTTC | 0.0483 |
| GCATGGCC | 0.003 |
| TCGTACGA | -0.123 |
| GCCTTCCC | 0.0183 |
| AACCACGG | -0.00831 |
| ATATAATC | 0.0583 |
| CCCAGCGG | 0.245 |
| ATTGGGCC | 0.0328 |
| AGCTAGGG | -0.0617 |
| ACTCTCGA | -0.367 |
| CAGCCCAC | -0.0872 |

| Sequence | PBM E-score |
| --- | --- |
| GCGGGGCC | 0.335 |
| ACAGTCCG | 0.191 |
| ACCCTATG | -0.294 |
| CGTATTAA | -0.0376 |
| TATAAAGA | -0.0662 |
| CCCGGCCC | 0.163 |
| ACTAAGTC | -0.00313 |
| ACTATCGC | -0.0394 |
| AAAGCTGT | -0.153 |
| GCCAATAA | -0.0464 |
| CTTCTTAC | 0.102 |
| AATACGAG | -0.188 |
| AATGAACG | -0.18 |
| AACCATCC | 0.00285 |
| AACCTACC | -0.0234 |
| AACAAAAT | -0.154 |
| CAGGCTCC | 0.0628 |
| ATTCGCTA | -0.286 |
| AAACCGTA | -0.0322 |
| AATCATCC | 0.00355 |
| GATATAGA | -0.162 |
| CATACGGC | 0.212 |
| AGGGCGCC | -0.0741 |
| CTCATCAA | -0.178 |
| ATGATCTA | -0.0693 |

| Sequence | PBM E-score |
| --- | --- |
| CGATAGCA | 0.0668 |
| CGACCCCA | 0.0535 |
| CTCAACCA | -0.149 |
| ACGGTTGG | -0.0945 |
| ACTAGGCT | -0.252 |
| CACGCACC | 0.102 |
| ACCAGTAC | -0.103 |
| CCTTCTAG | -0.19 |
| CTGTCTGC | -0.207 |
| AGGCTAGA | -0.121 |
| CTGGGTAC | -0.106 |
| AGTGGAAC | -0.0518 |
| AGGTCACT | -0.305 |
| ACGGTAGG | 0.108 |
| AGCGAACC | -0.0988 |
| TCCGTAGA | 0.2 |
| TAAACCTA | -0.0733 |
| CAGGCTTA | -0.112 |
| AGAAAGCT | -0.0757 |
| GGGACTGA | -0.172 |
| CTGGATGA | -0.148 |
| CCGCTAGA | 0.21 |
